T1: recombinant mhm chimeric HGF protein containing human W507-L585 HGF sequence disposed within mouse HGF … (mouse-human-mouse chimera, UniProt Q08048 56-728)
T1 construct: CHO supernatant; also called mhm chimera (W507-L585); MHM chimera (507-585)
T1 chain: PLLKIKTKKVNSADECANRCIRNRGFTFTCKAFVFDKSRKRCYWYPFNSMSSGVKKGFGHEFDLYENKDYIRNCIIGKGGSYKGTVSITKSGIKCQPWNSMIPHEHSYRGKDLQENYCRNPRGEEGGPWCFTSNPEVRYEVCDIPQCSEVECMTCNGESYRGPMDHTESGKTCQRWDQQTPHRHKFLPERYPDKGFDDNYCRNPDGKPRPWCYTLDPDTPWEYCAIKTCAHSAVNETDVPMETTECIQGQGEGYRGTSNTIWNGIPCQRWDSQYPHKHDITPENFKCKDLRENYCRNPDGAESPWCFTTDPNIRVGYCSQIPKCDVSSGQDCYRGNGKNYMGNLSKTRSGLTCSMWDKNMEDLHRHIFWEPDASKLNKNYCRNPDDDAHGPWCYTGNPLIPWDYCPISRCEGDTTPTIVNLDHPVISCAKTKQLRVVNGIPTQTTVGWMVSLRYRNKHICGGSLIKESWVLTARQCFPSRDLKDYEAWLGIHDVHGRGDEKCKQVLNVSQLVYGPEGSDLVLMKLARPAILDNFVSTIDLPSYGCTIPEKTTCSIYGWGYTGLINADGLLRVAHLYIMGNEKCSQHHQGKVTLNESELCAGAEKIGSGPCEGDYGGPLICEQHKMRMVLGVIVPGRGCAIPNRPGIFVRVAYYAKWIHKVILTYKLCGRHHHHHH

T2: recombinant mhm chimeric HGF protein containing the region I499-R556 of hHGF disposed between murine sequences (mouse-human-mouse chimera, UniProt Q08048 56-728)
T2 construct: also called mhm chimera (I499-R556)
T2 chain: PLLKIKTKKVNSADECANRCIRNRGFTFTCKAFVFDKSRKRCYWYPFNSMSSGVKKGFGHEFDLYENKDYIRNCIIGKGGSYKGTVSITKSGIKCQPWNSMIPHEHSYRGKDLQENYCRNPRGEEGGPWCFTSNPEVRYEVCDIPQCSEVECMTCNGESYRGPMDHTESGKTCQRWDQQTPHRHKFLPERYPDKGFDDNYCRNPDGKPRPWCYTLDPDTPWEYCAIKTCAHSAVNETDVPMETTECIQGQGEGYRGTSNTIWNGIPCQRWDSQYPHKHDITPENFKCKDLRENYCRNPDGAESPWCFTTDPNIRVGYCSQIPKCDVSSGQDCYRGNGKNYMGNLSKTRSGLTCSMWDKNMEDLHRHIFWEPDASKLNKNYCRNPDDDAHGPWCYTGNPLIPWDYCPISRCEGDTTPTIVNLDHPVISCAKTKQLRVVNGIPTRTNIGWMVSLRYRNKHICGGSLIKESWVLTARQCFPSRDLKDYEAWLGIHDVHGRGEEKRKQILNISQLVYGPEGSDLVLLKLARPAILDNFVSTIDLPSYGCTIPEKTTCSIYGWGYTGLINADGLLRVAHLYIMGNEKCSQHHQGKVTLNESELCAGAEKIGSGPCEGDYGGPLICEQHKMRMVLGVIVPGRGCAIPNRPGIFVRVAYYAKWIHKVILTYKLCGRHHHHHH


Assays:
[1] = target: T3, recombinant human HGF (R&D Systems, Catalog No. 294-HGN-025) (human, UniProt P14210 32-728); assay: SPR, captured antibody, HGF injected, 25 C
T3 construct: Mature HGF is a disulfide-linked heterodimer of alpha and beta chain cut from one precursor; also called rhHGF (R&D Systems); rhHGF
T3 sequence (P14210 32-728 limits assumed): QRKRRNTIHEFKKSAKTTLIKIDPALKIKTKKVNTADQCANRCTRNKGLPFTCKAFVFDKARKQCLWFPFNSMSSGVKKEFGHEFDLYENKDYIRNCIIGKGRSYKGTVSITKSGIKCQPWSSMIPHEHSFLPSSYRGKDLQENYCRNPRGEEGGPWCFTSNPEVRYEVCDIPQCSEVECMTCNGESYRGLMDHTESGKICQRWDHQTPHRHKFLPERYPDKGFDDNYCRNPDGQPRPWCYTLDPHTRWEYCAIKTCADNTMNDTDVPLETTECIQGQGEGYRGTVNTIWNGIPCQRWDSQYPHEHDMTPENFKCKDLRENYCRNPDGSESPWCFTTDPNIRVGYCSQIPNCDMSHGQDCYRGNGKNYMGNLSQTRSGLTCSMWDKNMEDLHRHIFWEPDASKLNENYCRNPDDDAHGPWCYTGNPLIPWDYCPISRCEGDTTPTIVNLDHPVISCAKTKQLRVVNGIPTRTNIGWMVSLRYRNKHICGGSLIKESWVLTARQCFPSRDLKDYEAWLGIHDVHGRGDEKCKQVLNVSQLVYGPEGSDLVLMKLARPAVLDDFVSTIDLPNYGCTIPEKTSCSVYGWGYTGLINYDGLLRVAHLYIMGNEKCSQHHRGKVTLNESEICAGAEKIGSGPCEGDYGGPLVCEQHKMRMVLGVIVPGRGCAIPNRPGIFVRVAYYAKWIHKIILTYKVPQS
Description: (§1) Mouse anti-human immunoglobulins (Jackson Labs, Catalog No. 209-005) or rabbit anti-mouse immunoglobulins (BIAcore, Catalog No. BR-1005-14) were immobilized on carboxymethylated dextran CM4 sensor chips (BIAcore, Catalog No. BR-1006-68) by amine coupling (BIAcore, Catalog No. BR-1000-50) using a standard coupling protocol according to manufacturer's instructions. […] The analyses were performed at 25° C. and 37° C. using PBS (GIBCO, Catalog No. 14040-133) containing 0.05% surfactant P20 (BIAcore, Catalog No. BR-1000-54), and 2 mg/mL BSA (EMD, Catalog No. 2930) as running buffer.
(§2) The antibodies were captured in an individual flow cell at a flow rate of […]. Injection time was variable for each antibody to yield approximately 20 RU of antibody captured for each cycle. […] The dissociation phase was monitored for 15 or 90 minutes, depending on concentration. The surface of mouse anti-human immunoglobulins sensor chips was then regenerated with 10 mM Glycine-HCl, pH 2.2 (BIAcore, Catalog No. BR-1003-54) injected for 3 minutes at a flow rate of 60 μL/min before another cycle was initiated. The surface of rabbit anti-mouse immunoglobulins sensor chips was regenerated with 10 mM Glycine-HCl, pH 1.7 (BIAcore, Catalog No. BR-1003-54) injected for 3 minutes at a flow rate of 60 μL/min before another cycle was initiated.
(§3) Kinetic parameters were determined using the kinetic function of the BIAevaluation software with reference subtraction.

[2] = target: T3, recombinant human HGF (R&D Systems, …); assay: SPR, captured antibody, HGF injected, 25 C; remark: listed apart in the source
Description: Mouse anti-human immunoglobulins (Jackson Labs, Catalog No. 209-005) were immobilized on carboxymethylated dextran CM4 sensor chips (BIAcore, Catalog No. BR-1006-68) by amine coupling (BIAcore, Catalog No. BR-1000-50) using a standard coupling protocol according to manufacturer's instructions. The analyses were performed at 25° C. using PBS (GIBCO, Catalog No. 14040-133) containing 0.05% surfactant P20 (BIAcore, Catalog No. BR-1000-54), and 2 mg/mL BSA (EMD, Catalog No. 2930).
The antibodies were captured in an individual flow cell at a flow rate of 10 μL/min. Injection time was variable for each antibody to yield approximately 20 RU of antibody captured for each cycle. […] The dissociation phase was monitored for 15 or 90 minutes, depending on concentration. The surface then was regenerated with 10 mM Glycine-HCl, pH 2.2 (BIAcore, Catalog No. BR-1003-54) injected for 3 minutes at a flow rate of 60 μL/min before another cycle was initiated.
Kinetic parameters were determined using the kinetic function of the BIAevalutation™ software with reference subtraction.

[3] = target: T1, recombinant mhm chimeric HGF protein …; assay: SPR, antibody immobilized, HGF protein injected, 25 C
Description: (§4) Analyses were performed at 25° C. using PBS (GIBCO, Catalog No. 14040-133) containing 0.05% surfactant P20 (BIAcore, Catalog No. R-1000-54), 2 mg/mL BSA (EMD, Catalog No. 2930) and 10 mg/mL CM-Dextran Sodium salt (Fluka, Catalog No. 86524) as running buffer. […] The resulting binding was determined as resonance units (RU) over baseline 30 seconds after the end of injection. […] Non-specific binding was monitored by comparing binding to a control surface.

[4] = target: T2, recombinant mhm chimeric HGF protein …; assay: as above
Description: as §4

[5] = target: T4, recombinant mouse HGF (R&D Systems) (mouse, UniProt Q08048 33-728); assay: as above
T4 construct: Bought protein, construct not described; also called rmHGF (R&D Systems); murine HGF
Description: as §4

[6] = target: T3, recombinant human HGF (R&D Systems, …); assay: SPR, captured antibody, HGF injected, 37 C
Description: as §1, §2, §3

[7] = target: T3, recombinant human HGF (R&D Systems, …); assay: competition ELISA (DELFIA): antibody inhibits biotinylated c-Met binding to plate-coated HGF
Description: The plates then were blocked with 200 μL of 5% non-fat dry milk in PBS for 1 hour at room temperature. […] 100 μL of sample per well was transferred to the assay plate and incubated for 2 hours at room temperature. The resulting plates were washed three times with PBS-0.1% Tween 20, and incubated for 1 hour at room temperature with Eu-labeled Streptavidin (Wallac, Catalog No. 1244-360) diluted 1:1000 in DELFIA assay buffer (Wallac, Catalog No. 4002-0010). The resulting plates were washed 3 times with DELFIA wash solution (Wallac, Catalog No. 4010-0010) and incubated with 100 μL/well DELFIA enhancement solution (Wallac #4001-0010) for 15 minutes at room temperature with agitation. The plates were read on Victor³V instrument (Perkin Elmer) using the Europium method. The IC₅₀ values were calculated using Prism.

[8] = target: T3, recombinant human HGF (R&D Systems, …); assay: cell-based or functional assay
[9] = target: T3, recombinant human HGF (R&D Systems, …); assay: cell-based or functional assay; remark: listed apart in the source

Kd [1]	koff [1]	kon [1]	Kd [2]	koff [2]	kon [2]	binding result [3]	binding result [4]	binding result [5]	Kd [6]	koff [6]	kon [6]	IC50 [7]	EC50, inhibition of HGF-stimulated c-Met phosphorylation in PC-3 cells, Average of Two Trials [8]	IC50, neutralization of HGF stimulated BrdU incorporation in 4 MBr-5 cells [9]	Binder
0.012 nM	2.3e-05 s⁻¹	1.9e+06 M⁻¹ s⁻¹	0.012 nM	2.3e-05 s⁻¹	1.9e+06 M⁻¹ s⁻¹										sh2B8-12 (G1m(17,1)) = hu2B8 Hv5-51.1 + IgG1 constant region (G1m(17,1) allotype) plus hu2B8 Kv3-15.1 + Kappa constant region (Km(3) allotype, allele 2) (antibody) heavy: EVQLVQSGAEVKKPGESLKISCKGSGYSFTTYWMHWVRQMPGKGLEWMGEINPTNGHTNYNPSFQGQVTISADKSISTAYLQWSSLKASDTAMYYCARNYVGSIFDYWGQGTLVTVSS[human IgG1 constant region cut from this listing] light: EIVMTQSPATLSVSPGERATLSCKASENVVSYVSWYQQKPGQAPRLLIYGASNRNTGIPARFSGSGSGTEFTLTISSLQSEDFAVYYCGQSYNYPYTFGQGTKLEIKRTVAAPSVFIFPPSDEQLKSGTASVVCLLNNFYPREAKVQWKVDNALQSGNSQESVTEQDSKDSTYSLSSTLTLSKADYEKHKVYACEVTHQGLSSPVTKSFNRGEC
						binds	binds	no binding	0.0048 nM	1.1e-05 s⁻¹	2.4e+06 M⁻¹ s⁻¹	6.8 nM	0.81 nM	0.81 nM	sh2B8-12 (G1m(3)) = hu2B8 Hv5-51.1 + IgG1 constant region (G1m(3) allotype, allele 2) plus hu2B8 Kv3-15.1 + Kappa constant region (Km(3) allotype, allele 2) (antibody, Superhumanized 2B8 variant, human IgG1 kappa, made in 293T cells) heavy: EVQLVQSGAEVKKPGESLKISCKGSGYSFTTYWMHWVRQMPGKGLEWMGEINPTNGHTNYNPSFQGQVTISADKSISTAYLQWSSLKASDTAMYYCARNYVGSIFDYWGQGTLVTVSSASTKGPSVFPLAPSSKSTSGGTAALGCLVKDYFPEPVTVSWNSGALTSGVHTFPAVLQSSGLYSLSSVVTVPSSSLGTQTYICNVNHKPSNTKVDKRV[human IgG1 Fc cut from this listing] light: EIVMTQSPATLSVSPGERATLSCKASENVVSYVSWYQQKPGQAPRLLIYGASNRNTGIPARFSGSGSGTEFTLTISSLQSEDFAVYYCGQSYNYPYTFGQGTKLEIKRTVAAPSVFIFPPSDEQLKSGTASVVCLLNNFYPREAKVQWKVDNALQSGNSQESVTEQDSKDSTYSLSSTLTLSKADYEKHKVYACEVTHQGLSSPVTKSFNRGEC

— patent publication US20140178935A1 (AVEO PHARMACEUTICALS, published 2014)
